Binding data for two substances are collected here from publication PMC3584131.

Sequences of proteins named here, by UniProt entry; tags and fusion partners are left off.
UniProt Q9QZS3: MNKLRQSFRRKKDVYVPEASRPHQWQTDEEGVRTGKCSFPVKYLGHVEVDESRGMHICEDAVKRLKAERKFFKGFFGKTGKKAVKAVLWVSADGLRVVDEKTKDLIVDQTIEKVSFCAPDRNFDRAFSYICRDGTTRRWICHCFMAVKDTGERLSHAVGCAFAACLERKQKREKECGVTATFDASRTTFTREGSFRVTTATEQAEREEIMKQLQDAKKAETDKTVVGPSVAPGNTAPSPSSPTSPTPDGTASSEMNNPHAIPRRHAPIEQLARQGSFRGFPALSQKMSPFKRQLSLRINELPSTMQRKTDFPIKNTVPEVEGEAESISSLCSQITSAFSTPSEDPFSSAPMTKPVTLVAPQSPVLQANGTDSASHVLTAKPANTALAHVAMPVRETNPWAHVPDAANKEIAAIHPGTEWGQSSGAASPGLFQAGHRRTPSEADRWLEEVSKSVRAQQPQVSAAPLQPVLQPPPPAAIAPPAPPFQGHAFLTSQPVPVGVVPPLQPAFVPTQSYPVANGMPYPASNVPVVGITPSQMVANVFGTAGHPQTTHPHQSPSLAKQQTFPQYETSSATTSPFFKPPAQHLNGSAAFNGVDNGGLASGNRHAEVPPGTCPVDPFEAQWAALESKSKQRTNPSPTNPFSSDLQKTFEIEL

The target of assay [1] is T1, myc-TBC1D15 (expressed in TISCs) (murine) (UniProt Q9CXF4).
T1 sequence: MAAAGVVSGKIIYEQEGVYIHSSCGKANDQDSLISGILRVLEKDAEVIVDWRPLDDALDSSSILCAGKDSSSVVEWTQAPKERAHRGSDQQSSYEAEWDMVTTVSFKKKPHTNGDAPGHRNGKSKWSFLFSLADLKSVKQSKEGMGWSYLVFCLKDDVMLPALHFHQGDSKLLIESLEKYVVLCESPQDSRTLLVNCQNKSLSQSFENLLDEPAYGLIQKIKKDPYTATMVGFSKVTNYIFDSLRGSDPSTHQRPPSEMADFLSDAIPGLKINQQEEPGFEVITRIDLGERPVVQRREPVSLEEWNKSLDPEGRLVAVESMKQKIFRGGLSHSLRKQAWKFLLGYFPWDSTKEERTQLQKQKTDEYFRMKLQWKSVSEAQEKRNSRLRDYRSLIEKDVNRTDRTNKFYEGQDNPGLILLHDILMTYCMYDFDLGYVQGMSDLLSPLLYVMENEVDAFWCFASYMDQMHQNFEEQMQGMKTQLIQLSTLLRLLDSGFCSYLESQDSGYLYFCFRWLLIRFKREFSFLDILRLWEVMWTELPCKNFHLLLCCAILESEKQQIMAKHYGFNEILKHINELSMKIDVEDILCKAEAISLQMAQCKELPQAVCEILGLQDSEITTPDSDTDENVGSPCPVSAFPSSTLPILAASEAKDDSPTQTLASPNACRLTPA
Nature of the assay: co-IP; cytoplasmic lysates of transfected murine TISCs; immunoprecipitation with anti-Numb agarose or anti-myc antibody, 4°C; five washes in Buffer W (300 mM NaCl, 0.5% triton X-100); immunoblot. (In general: In western blotting, separated proteins are transferred to a membrane and probed.)

The target of assay [2] is T2, myc-TBC1D15 (expressed in HEK-293A cells) (murine) (UniProt Q9CXF4).
T2 sequence: T1 sequence
Description: pull-down; competition: fixed Flag-Numb-3A first incubated alone or with increasing His6-p53 (1.0-20 nM), then mixed with myc-TBC1D15 agarose or BSA-agarose; extensive washing; immunoblot; both purified.

Results are given in words; binding and its absence hold for the method and conditions named. For some assays here: In cells and extracts the contact can be indirect. Some binding calls cover weakened binding; strength is not graded here. Tags and fused reporters may be left off the sequences shown.

Take “Flag-Numb (expressed in TISCs) (from UniProt Q9QZS3 1-653)”: the binding entry in assay [1] is reported as “binds”. For the substance His6-p53 (from UniProt P04637 1-393), the binding entry in assay [2] is recorded as “no binding (tested: 1.0–20 nM)”.
